Measured values reported in the RNAGym collection of RNA variant scans (doi:10.1093/nar/gkz1192).
Read counts are not given, so values of variants with three or more changes are uncertain.

B1: CPEB3 Ribozyme (parent)
chain: UAACAGGGGGCCACAGCAGAAGCGUUCACGUCGCAGCCCCUGUCAGAUUCUGGUGAAUCUGCGAAUUCUGCUGUAUAUCUC

Variants of: B1
Test: self-cleavage, relative activity (ratio to wild type); higher = more cleavage; in vitro, sequencing
Procedure, shortened: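 For each CPEB3 ribozyme variant, relative activity is its cleaved/total read fraction divided by the unmutated ribozyme's. Barcoded error-prone PCR libraries were transcribed by T7 RNA polymerase (5 hours, 37°C) and held in DNase I for 15 min before an EDTA stop, with cleavage occurring throughout. Template-switching reverse transcription and Illumina sequencing were used to read the RNAs. A 5-read minimum applied, and results are the mean of three batches.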
For A21G U69C A77C, the self-cleavage was 0.27.
With G24A A28G A45G U69C A75U A77G the self-cleavage was 0.11.
A21G U49A U69C gave a self-cleavage of 0.24.
A21U C29U U69C showed a self-cleavage of 0.09.
A21G U41C A56U C62U U72C showed a self-cleavage of 0.13.
In the case of A21U U60C U78C, the self-cleavage is reported as 0.11.
Variant A21U A28G U67A has a self-cleavage of 0.14.
A21G U41C A45G showed a self-cleavage of 0.4.
In the case of A21G U41C A45U, the self-cleavage is reported as 0.44.
Variant A21G U41A U60C A77C has a self-cleavage of 0.06.
A21G G24A U80C gave a self-cleavage of 0.28.
For A21U U58C A64U U72G, the self-cleavage was 0.12.
Variant C23U A28U C71G has a self-cleavage of 0.06.
For A21G U41C U60A, the self-cleavage was 0.23.
Variant C23U A35G U60C has a self-cleavage of 0.3.
G22A A28U A35G G36U showed a self-cleavage of 0.12.
A21G U54C A56U U60C gave a self-cleavage of 0.12.
Variant A21G U43C U48A G52C has a self-cleavage of 0.09.
Work on A21U C23U U60C yielded a self-cleavage of 0.35.
For C23A U58C U69A, the self-cleavage was 0.13.
For A21G U51A U60C C71U, the self-cleavage was 0.22.
With C23G G63U U66C the self-cleavage was 0.16.
Variant A21G U43A U51C A65G has a self-cleavage of 0.21.
Work on G22A C37U U41C A45U U69A yielded a self-cleavage of 0.15.
Work on C23G U25C U41C U48C U69C yielded a self-cleavage of 0.04.
With A21G U31A U49C U54C A56G the self-cleavage was 0.28.
A21G U41C U58C A65C showed a self-cleavage of 0.11.
For A21G G24A A35G, the self-cleavage was 0.28.
A21U A45G U54C A65G gave a self-cleavage of 0.29.
A21U U26C C37A U58C U72G U80C showed a self-cleavage of 0.1.
Variant A21G U31G C40U A45U G53U U80C has a self-cleavage of 0.11.
Work on C23A G55C A57G U76A yielded a self-cleavage of 0.05.
Variant A21U G53C A57G has a self-cleavage of 0.32.
For G22A U60A U69A G73A, the self-cleavage was 0.07.
In the case of G24A A64G U72C U76A, the self-cleavage is reported as 0.15.
For A21U U26A U51C U78C, the self-cleavage was 0.19.
With A21G U48C U49C U74A C81U the self-cleavage was 0.06.
Variant A21G U41A U48C U60C U69C has a self-cleavage of 0.27.
For C23U U41A U66C, the self-cleavage was 0.18.
With A21G U26C A35U U69A U72C the self-cleavage was 0.07.
With C23U A47G U49C the self-cleavage was 0.21.
In the case of G22A U67C U74C, the self-cleavage is reported as 0.18.
A21U U31C C32A showed a self-cleavage of 0.09.
In the case of A21U U31C U78C, the self-cleavage is reported as 0.39.
In the case of C23U U60A U76C U80A, the self-cleavage is reported as 0.08.
In the case of A21G U25C U51C U54A, the self-cleavage is reported as 0.39.
Variant A21G U43C A65G A77U has a self-cleavage of 0.07.
A21G U25C U48C gave a self-cleavage of 0.23.
A21U U41A U51A gave a self-cleavage of 0.13.
Work on G22A U26C U58C A65G U67A yielded a self-cleavage of 0.43.
In the case of A21U U48C U51C, the self-cleavage is reported as 0.16.
Work on A21G U26C U49C U69C yielded a self-cleavage of 0.08.
A21G U43C A64G U66C U74C gave a self-cleavage of 0.48.
For A21G U49C A56G U72A, the self-cleavage was 0.27.
In the case of C23G C27U C34A A47C G70U U80C, the self-cleavage is reported as 0.06.
For A21U U26C A35U A56G, the self-cleavage was 0.05.
For A21G G33U U43A, the self-cleavage was 0.13.
Variant C23U C40U U43A U49C U51A U72C has a self-cleavage of 0.06.
For A21G U31C U76A, the self-cleavage was 0.24.
A21G G63C U78C showed a self-cleavage of 0.46.
C23U U25C A57U U67C showed a self-cleavage of 0.07.
With A21G G30C A56G the self-cleavage was 0.2.
With A21G U26A U43C the self-cleavage was 0.35.
A21G U26C G42U U54A U67A showed a self-cleavage of 0.07.
Variant C23U C32A U41A U51C U54C has a self-cleavage of 0.07.
A21G C37U U51C U78A showed a self-cleavage of 0.55.
For A21U A45G U54C, the self-cleavage was 0.17.
C23U U41C U48C U58C U74C showed a self-cleavage of 0.12.
In the case of G22A A56U U60C, the self-cleavage is reported as 0.12.
Work on A21G U25C A47G A57G U78C yielded a self-cleavage of 0.05.
C23G U26A A35U U43A A65G U67C G70A gave a self-cleavage of 0.03.
Work on A21G U26C U31C U48A U67G yielded a self-cleavage of 0.05.
Work on A21G U31C C40U A64U yielded a self-cleavage of 0.13.
Variant A21G U25C U60A U78C has a self-cleavage of 0.2.
Variant C23G U41C U48C C50G U69A A75G has a self-cleavage of 0.08.
For A21G U26A U31C U43C A45G U74G, the self-cleavage was 0.07.
For C23U U26C U74A U78C, the self-cleavage was 0.07.
A21G U25C A57G U60C A64U C79U showed a self-cleavage of 0.06.
A21U U41A U60G U78A gave a self-cleavage of 0.22.
With A21G G22C U49C the self-cleavage was 0.25.
C23G U25C U41A A57G U66C gave a self-cleavage of 0.08.
A21G U25C U41A A64G gave a self-cleavage of 0.21.
With A21G U41A U49C G73A U80G the self-cleavage was 0.34.
Variant A21G U26C A35U has a self-cleavage of 0.16.
